# ± gives the standard deviation of the averaged measurements. This is one part of the list.
# Tested on: PfAP2-G AP2 domain (GST-tagged)
# Experiment: gcPBM binding intensity (ln(normalized median fluorescence intensity)); higher = stronger DNA binding
# Summary of the method: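 An Agilent 4 × 180k array of primer-extended double-stranded 36-bp intergenic genomic probes, with negative controls, was incubated for 1 h with GST-tagged P. falciparum DNA-binding domains expressed in E. coli. Alexa488 anti-GST antibody detected bound protein, scanned at 488 nm. Binding intensity is the highest Masliner-normalised natural-log median intensity across replicate spots of either probe orientation.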
row,Sequence,gcPBM binding intensity (ln)
1,AATTTATTATTTTATTGTACGTATTTTTTTTTTTAT [XGTACX_site2298],11.6 ± 0.81
2,CATATATAAATATATACACACATACATACATACATA [CACACA_site5988],9.96 ± 0.014
3,ATATTATAGTTATGAACATGCAAACATTACGAAATA [TGCATGCA_site54],10.1 ± 0.18
4,TTTATTTAAAAAGTTTGTACATATATATTATTTTGA [XGTACX_site6040],10.9 ± 0.56
5,GAATCATATTTAAACACACATACATATATATATATA [CACACA_site3352],9.92 ± 0.028
6,AATAAGTAACAAAATACACACATATATATAATTATA [CACACA_site1837],9.945 ± 0.064
7,TTTACATCCAAAAACTGTACACTTATTTTATAATTC [XGTACX_site5332],11.4 ± 0.73
8,ATATATATAATATGTAGTACTTTCCTCTCAAATCAT [XGTACX_site7766],11.2 ± 0.87
9,ATCAAAAATATAAAAAATATAAACAATTTATTATCA [CACACA_negctrl_site768],9.46 ± 0.13
10,TTCATTTTTTAAGCATCACACACGAAAGAACAAAGT [CACACA_site1122],10.5 ± 0.44
11,TTCATTATTATTAACATACACACGTGTTATATACAC [CACACA_site4112],10.01 ± 0.099
12,AAAAAATACAAGAAATGTACTCAAGCATATATTAAT [XGTACX_site3325],11.2 ± 0.67
13,TTTTTACTATAATTAAAATTAACAAAAGAAAATGAT [GTGCAC_negctrl_site52],9.97 ± 0.31
14,TTTAATAATATAATGTGTACTTAAAAATTTATATAT [XGTACX_site5821],11.4 ± 0.93
15,AAAAATATATAAGAGAGTACATAAAATAAATTAATT [XGTACX_site1534],11.3 ± 0.86
16,TCATAAATTAATAATACATGCATAATATTAAAATGT [TGCATGCA_site5],9.7 ± 0.014
17,TCATTTTATTATTCTACACACTTATCTATAATTACA [CACACA_site6168],10.2 ± 0.21
18,TTACATGTACAAAAGTTGCACTTCATACACTTTTAT,11.1 ± 0.61
19,ATTCTATATATGTGCACACAAAAGATATATATATAT [CACACA_site2124],10.7 ± 0.48

row,Sequence,gcPBM binding intensity (ln)
1,CGAAGGTTTGGCCATGCATGTTATAAGAATATATGT [TGCATGCA_site441],10.14 ± 0.064
2,AATATAAAATAATGCACACATAAACAAAAAATCAAA [CACACA_site1371],10.1 ± 0.078
3,TCATTTCAATACACAAGTACGTATATGGTTATATTG [XGTACX_site6021],11.2 ± 0.6
4,CATATGTATATGACTACACACAAGGGTGTACATATA [CACACA_site1164],11.6 ± 0.93
5,ACATGAAGATATTTTTGTCCGTACAAATTCATATGA [XGTACX_site1837],11.4 ± 0.97
6,TTTCCAAATTGTTGACGGACACTCACGAATAGTTAT [XGTACX_site5720],11.3 ± 0.64
7,TACGTTATGTTGAATAGTACAATTTGGTGAACAGGT [XGTACX_site1729],11 ± 0.55
8,GTCCTCATCCACTATGCACACAAAAAAGAAATACAC [CACACA_site9131],10.7 ± 0.54
9,TTTTTTTTTTTTTTTTGTACACAAATTTATTGTCTA [XGTACX_site2680],11.3 ± 1
10,AGTATATCAAAATACATACACACATTTGTATATACA [CACACA_site2697],9.955 ± 0.064
11,TGAATTCGTCAAAAGCGTACATATAATATCTTCTTG [XGTACX_site8842],11.4 ± 0.67
12,ACATATATATATATATATAATATTTTATATTTATTA [CACACA_negctrl_site713],10.1 ± 0.39
13,TTATAAAAATAATATCGTACAAATGATAAAGATTAA [XGTACX_site4893],11 ± 0.38
14,ATATTTTTTTATAAATGTACAAAAATAATATTGCAT [XGTACX_site7399],10.7 ± 0.52
15,AAAATAATGTTTATATGTACATATATATATATATAT [XGTACX_site8815],11 ± 0.57
16,CCATTTACCCTTGCCATGCACACTTTTTTATAGAAA [CACACA_site3505],10.5 ± 0.3
17,TATATAGTAATATATACACACACTTGTCTTGTAAAA [CACACA_site990],10.1 ± 0.21
18,AAAATTTCAATAAATACACACATATATATATATATT [CACACA_site1685],9.99 ± 0.16
19,AAATAATATATGAATGCACACAGTAAAAATTAAAGA [CACACA_site2252],10.1 ± 0.13

row,Sequence,gcPBM binding intensity (ln)
1,ATATATACCTAAGACACACACATATAGATTTATATA [CACACA_site6498],9.97 ± 0.028
2,TTCTTTGTGGTATAGATACACACTATATTAATATGA [CACACA_site2150],10.4 ± 0.2
3,ATTTTAGATATCCTGCGTACACAAATTGCTTTATTT [XGTACX_site7149],11.6 ± 0.76
4,AAGATTAATATTTTATGTACATATGTAATATATATG [XGTACX_site4367],11.2 ± 0.69
5,ATATTTTTATGATGTATCCAAGAAATGGAACTATAT [CACACA_negctrl_site1268],10.2 ± 0.27
6,AAGAATACACCACGCACACACACTTGAGAAAAAATA [CACACA_site3828],10.5 ± 0.45
7,TATCTTATTTTAAAAGTGCATGGAAAGGGGTTTTTG,10.2 ± 0.16
8,TGTATAAGTGCCGTTATACACACGTTATATAAATAT [CACACA_site438],10.005 ± 0.007
9,TTTGAAATAAAAAGGTGTACACTCGATTAATAAATA [XGTACX_site6943],11.8 ± 0.98
10,ACTATCATTTTTTTAACACACAAAAAAAATAAAATA [CACACA_site3519],10.1 ± 0.3
11,TTTTAGCACTTATTATAAGATATCAAAAAGATGGGT [XGTACX_negctrl_site325],10.12 ± 0.085
12,ATAAATTTATATACTTGTACATATATATATTACATA [XGTACX_site6697],11.1 ± 0.57
13,TATATATACATATACACACACACACCCATATATATA [CACACA_site2246],10.1 ± 0.2
14,GAATATAAAAAAGAATGTACTTGAACAGTCCTAAAA [XGTACX_site745],10.9 ± 0.59
15,ACATGTGAAGGGAACATAAATTGGGGTTTTATATTG [XGTACX_negctrl_site508],10.4 ± 0.12
16,AAATTATAAATAATTTGTACATAAAAATTGGTAAAG [XGTACX_site5197],11 ± 0.44
17,ATGTAGTCTCAAGACTGTACAAACAAGTAAATAAAA [XGTACX_site4120],10.8 ± 0.4
18,TTTTTTATATTAAATGAAGAATATACAAAATTTTAA [CACACA_negctrl_site558],9.87 ± 0.24
19,TTTTGTTAGTTTTTTTTCTTATATTACATTTTCACG [CACACA_negctrl_site1466],9.96 ± 0.18

# From the supplement of paper PMC11417369
